Laboratory results: the supplement of paper PMC12645437, “Orthogonal IMiD-Degron Pairs Induce Selective Protein Degradation in Cells” (ACS Chemical Biology, 2025)
The list shows a part of the results.

B1: Q9UKT9 (peptide)
chain: FRCNQCGAYFTQKGNLLRHIKL
B2: Q9UKT9 (peptide)
chain: FCCPICGATFTQKGNLLRHIKL
B3: Q9UKT9 (peptide)
chain: FSCPVCGARFTQKGNLLRHIKL
B4: Q9UKT9 (peptide)
chain: FHCNQCGRGFTQKGNLLRHIKL
B5: Q9UKT9 (peptide)
chain: FTCDICGANFTQKGNLLRHIKL
B6: Q9UKT9 (peptide)
chain: LICNQCGFPCTQKGNLLRHIKL
B7: Q9UKT9 (peptide)
chain: FTCNVCGAIFTQKGNLLRHIKL
B8: Q9UKT9 (peptide)
chain: FRCEQCGALFTQKGNLLRHIKL
B9: Q9UKT9 (peptide)
chain: FGCEICGRVFTQKGNLLRHIKL
B10: Q9UKT9 (peptide)
chain: FNCNQCGRQFTQKGNLLRHIKL
B11: Q9UKT9 (peptide)
chain: FGCNQCGANFTQKGNLLRHIKL
B12: Q9UKT9 (peptide)
chain: FRCEQCGATFTQKGNLLRHIKL
B13: Q9UKT9 (peptide)
chain: FCCPICGRAFTQKGNLLRHIKL
B14: Q9UKT9 (peptide)
chain: FKCSVCGHAFTQKGNLLRHIKL
B15: Q9UKT9 (peptide)
chain: FHCDQCGARFTQKGNLLRHIKL
B16: Q9UKT9 (peptide)
chain: FGCNQCGRQFTQKGNLLRHIKL
B17: Q9UKT9 (peptide)
chain: FHCDVCGADFTQKGNLLRHIKL
B18: Q9UKT9 (peptide)
chain: FYCEVCGAHFTQKGNLLRHIKL
B19: Q9UKT9 (peptide)
chain: FRCNICGAYFTQKGNLLRHIKL
B20: Q9UKT9 (peptide)
chain: LTCEICGFVCTQKGNLLRHIKL
B21: Q9UKT9 (peptide)
chain: FKCEICGAFFTQKGNLLRHIKL
B22: Q9UKT9 (peptide)
chain: FDCPICGRVFTQKGNLLRHIKL
B23: Q9UKT9 (peptide)
chain: FRCEVCGALFTQKGNLLRHIKL
B24: Q9UKT9 (peptide)
chain: FDCPICGAEFTQKGNLLRHIKL
B25: Q9UKT9 (peptide)
chain: FNCEICGRYFTQKGNLLRHIKL
B26: Q9UKT9 (peptide)
chain: FVCEICGHSFTQKGNLLRHIKL
B27: Q9UKT9 (peptide)
chain: FACDICGAPFTQKGNLLRHIKL
B28: Q9UKT9 (peptide)
chain: LMCEICGFDCTQKGNLLRHIKL
B29: Q9UKT9 (peptide)
chain: FKCEVCGALFTQKGNLLRHIKL
B30: Q9UKT9 (peptide)
chain: FCCEICGHVFTQKGNLLRHIKL
B31: Q9UKT9 (peptide)
chain: LFCPICGFDCTQKGNLLRHIKL
B32: Q9UKT9 (peptide)
chain: LACPICGFQCTQKGNLLRHIKL
B33: Q9UKT9 (peptide)
chain: FVCEVCGALFTQKGNLLRHIKL
B34: Q9UKT9 (peptide)
chain: LSCNQCGFMCTQKGNLLRHIKL
B35: Q9UKT9 (peptide)
chain: FLCEICGRNFTQKGNLLRHIKL
B36: Q9UKT9 (peptide)
chain: FDCEQCGAVFTQKGNLLRHIKL
B37: Q9UKT9 (peptide)
chain: FYCPVCGAIFTQKGNLLRHIKL
B38: Q9UKT9 (peptide)
chain: FHCNQCGRMFTQKGNLLRHIKL
B39: Q9UKT9 (peptide)
chain: LICEICGFFCTQKGNLLRHIKL
B40: Q9UKT9 (peptide)
chain: LICNQCGFWCTQKGNLLRHIKL
B41: Q9UKT9 (peptide)
chain: FGCEICGADFTQKGNLLRHIKL
B42: Q9UKT9 (peptide)
chain: FACEVCGAIFTQKGNLLRHIKL
B43: Q9UKT9 (peptide)
chain: FYCEICGHGFTQKGNLLRHIKL
B44: Q9UKT9 (peptide)
chain: FNCEICGHVFTQKGNLLRHIKL
B45: Q9UKT9 (peptide)
chain: FACNICGAVFTQKGNLLRHIKL
B46: Q9UKT9 (peptide)
chain: FKCPQCGAHFTQKGNLLRHIKL
B47: Q9UKT9 (peptide)
chain: FWCNVCGARFTQKGNLLRHIKL
B48: Q9UKT9 (peptide)
chain: LSCEICGFFCTQKGNLLRHIKL
B49: Q9UKT9 (peptide)
chain: FICEICGHNFTQKGNLLRHIKL
B50: Q9UKT9 (peptide)
chain: FFCEVCGAWFTQKGNLLRHIKL

What follows are sequences tested against no compound (DMSO) (assay: log2 fold change of degron read counts, EGFP-low vs EGFP+ sorted cells; higher = lower degron-EGFP level without compound (poor expression or instability)). Conditions: compound: DMSO control; 18 h.
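Also: jurkat cells carrying a lentiviral library of mutant zinc finger degrons fused to EGFP plus mCherry, mCherry+ cells FACS sorted, degron abundance counted by next-generation sequencing.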

Sequence | log2 fold change of degron read counts
B1 | 0.166
B2 | -0.0318
B3 | -0.198
B4 | -0.131
B5 | -1.73
B6 | 0.261
B7 | -0.221
B8 | -1.72
B9 | -0.588
B10 | -0.699
B11 | -0.397
B12 | -1.6
B13 | -0.178
B14 | -0.648
B15 | -1.16
B16 | 0.0492
B17 | -2.43
B18 | -1.04
B19 | 0.71
B20 | -0.499
B21 | -1.35
B22 | 0.146
B23 | -0.812
B24 | -0.778
B25 | -0.913

Sequence | log2 fold change of degron read counts
B26 | -2.12
B27 | 0.0822
B28 | 0.266
B29 | -1.43
B30 | -0.967
B31 | 1.4
B32 | 0.51
B33 | -1.35
B34 | 0.873
B35 | -1.45
B36 | -1.32
B37 | 0.19
B38 | 0.146
B39 | 1.21
B40 | 1.73
B41 | -1.19
B42 | -1.09
B43 | -0.643
B44 | -1.03
B45 | -0.721
B46 | -1.31
B47 | 0.428
B48 | 1.58
B49 | -2.29
B50 | -0.00992
